{
  "source": "paper PMC4336329",
  "about": "(PLoS ONE, 2015)",
  "note": "Screen size: about 310,000 compounds; about 2,200 (0.71%) showed an effect of 50% or more. The effect is printed as a negative number. Some of the results follow.",
  "data": [
    {"target": "human ether-à-go-go-related gene (hERG) potassium channel (human, UniProt Q12809)", "sequence (Q12809 whole entry, looked up)": "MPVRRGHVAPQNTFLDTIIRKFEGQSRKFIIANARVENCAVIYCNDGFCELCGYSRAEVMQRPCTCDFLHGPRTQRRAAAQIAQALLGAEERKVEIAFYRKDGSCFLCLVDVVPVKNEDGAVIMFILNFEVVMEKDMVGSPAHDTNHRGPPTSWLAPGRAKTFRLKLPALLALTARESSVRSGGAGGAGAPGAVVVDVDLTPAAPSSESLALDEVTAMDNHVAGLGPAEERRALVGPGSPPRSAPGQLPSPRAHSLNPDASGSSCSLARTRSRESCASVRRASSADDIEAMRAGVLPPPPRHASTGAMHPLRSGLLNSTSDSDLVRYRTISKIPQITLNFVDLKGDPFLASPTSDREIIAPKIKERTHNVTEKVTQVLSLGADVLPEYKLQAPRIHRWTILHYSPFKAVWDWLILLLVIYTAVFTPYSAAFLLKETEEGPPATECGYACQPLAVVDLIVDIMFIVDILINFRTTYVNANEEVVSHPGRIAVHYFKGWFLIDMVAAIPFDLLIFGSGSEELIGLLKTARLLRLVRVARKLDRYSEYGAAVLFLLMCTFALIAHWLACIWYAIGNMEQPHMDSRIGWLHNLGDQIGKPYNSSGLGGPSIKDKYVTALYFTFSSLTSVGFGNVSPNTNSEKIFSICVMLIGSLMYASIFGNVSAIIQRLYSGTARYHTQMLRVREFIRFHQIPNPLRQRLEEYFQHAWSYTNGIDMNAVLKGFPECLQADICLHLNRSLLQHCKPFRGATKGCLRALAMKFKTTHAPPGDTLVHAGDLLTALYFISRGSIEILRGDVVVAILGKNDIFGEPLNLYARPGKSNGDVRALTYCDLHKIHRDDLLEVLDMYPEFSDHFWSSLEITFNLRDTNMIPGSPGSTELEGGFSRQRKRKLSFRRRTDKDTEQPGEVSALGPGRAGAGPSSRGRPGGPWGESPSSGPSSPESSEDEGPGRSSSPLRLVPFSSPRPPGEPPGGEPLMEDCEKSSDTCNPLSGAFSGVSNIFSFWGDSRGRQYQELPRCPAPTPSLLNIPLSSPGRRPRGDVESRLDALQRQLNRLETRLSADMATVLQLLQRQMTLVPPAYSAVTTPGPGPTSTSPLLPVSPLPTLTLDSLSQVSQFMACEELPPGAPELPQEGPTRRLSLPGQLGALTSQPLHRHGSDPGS", "assay": "primary screen, population patch clamp on CHO cells stably expressing hERG", "units": {"hERG current change (%, negative = inhibition) at 1uM": "%"}, "values": [
      {"smiles": "O=C(OCc1nnc(-c2ccccc2)o1)c1cc(Cl)ccc1[N+](=O)[O-]", "hERG current change (%, negative = inhibition) at 1uM": 15.6},
      {"smiles": "Cc1nc(C)n(CC(O)COc2ccc(C(=O)c3ccccc3)cc2)n1", "note": "(centres unmarked)", "hERG current change (%, negative = inhibition) at 1uM": 10.1},
      {"smiles": "COc1ccc(C2C(=O)N(C3CCCCC3)CC(=O)N2CC2COc3ccccc3O2)cc1", "note": "(centres unmarked)", "hERG current change (%, negative = inhibition) at 1uM": -2.08},
      {"smiles": "COc1cccc(NC(=O)CN(C)C(=O)CCNC(=O)c2ccccc2Cl)c1", "hERG current change (%, negative = inhibition) at 1uM": 5.57},
      {"smiles": "Cc1cc(C)n(CC(=O)N/N=C/c2cccc([N+](=O)[O-])c2)n1", "hERG current change (%, negative = inhibition) at 1uM": 6.82},
      {"smiles": "Cc1ccc(-n2c(CSc3nc(C)cc(C)n3)nnc2SCC(=O)NCc2ccco2)cc1", "hERG current change (%, negative = inhibition) at 1uM": -4.89},
      {"smiles": "Nc1cc(N)nc(SCC(=O)NNC(=O)Cc2ccccc2)n1", "hERG current change (%, negative = inhibition) at 1uM": 4.14},
      {"smiles": "O=C(O)CCCCc1nc2ccccc2s1", "hERG current change (%, negative = inhibition) at 1uM": -5.69},
      {"smiles": "CS(=O)(=O)N(CC(=O)NCc1ccccn1)Cc1ccc(Cl)cc1", "hERG current change (%, negative = inhibition) at 1uM": 8.79},
      {"smiles": "CC(C)Cc1cc(C(=O)NCc2cccnc2)no1", "hERG current change (%, negative = inhibition) at 1uM": 16.4},
      {"smiles": "CN1C(=O)C(=Cc2ccc(N3CCOCC3)c([N+](=O)[O-])c2)C(=O)N(C)C1=O", "hERG current change (%, negative = inhibition) at 1uM": 6.9},
      {"smiles": "COc1ccc(CCNC(=O)Cn2cnc3scc(-c4ccccc4)c3c2=O)cc1OC", "hERG current change (%, negative = inhibition) at 1uM": 9.71},
      {"smiles": "O=C(O)Cc1sc(-c2ccc(C(=O)O)cc2)nc1-c1ccccc1", "hERG current change (%, negative = inhibition) at 1uM": 16.5},
      {"smiles": "O=C1C=C(NCc2ccc(Cl)cc2Cl)C2(CCCCC2)O1", "hERG current change (%, negative = inhibition) at 1uM": 6.48},
      {"smiles": "CC(C)C(=O)OCC(=O)NCc1ccccc1Cl", "hERG current change (%, negative = inhibition) at 1uM": 3.5},
      {"smiles": "CS(=O)(=O)c1ccc(Cl)c(NC(=O)C2CC(=O)N(c3ccc4c(c3)OCCO4)C2)c1", "note": "(centres unmarked)", "hERG current change (%, negative = inhibition) at 1uM": 6.75},
      {"smiles": "CCOC(=O)CN1CC23C=CC(O2)C(C(=O)Nc2ccc(OCC)cc2)C3C1=O", "note": "(centres unmarked)", "hERG current change (%, negative = inhibition) at 1uM": 9.33},
      {"smiles": "CCCCCOc1ccc(NC(=O)C(=O)NCC2CCCN2CC)cc1", "note": "(centres unmarked)", "hERG current change (%, negative = inhibition) at 1uM": -11.4},
      {"smiles": "O=S(=O)(c1ccc(Cl)cc1)N1CCCc2ccccc21", "hERG current change (%, negative = inhibition) at 1uM": 11},
      {"smiles": "O=C(O)c1cc(Cl)c(Cl)cc1C(=O)N1CCCC1", "hERG current change (%, negative = inhibition) at 1uM": 1.69},
      {"smiles": "COc1ccc(NS(=O)(=O)c2ccc(NC(=O)c3ccccc3)cc2)nn1", "hERG current change (%, negative = inhibition) at 1uM": 9.87},
      {"smiles": "CC(=O)N1CCc2ccc(S(=O)(=O)N3CCN(C)CC3)cc21", "hERG current change (%, negative = inhibition) at 1uM": 17.6},
      {"smiles": "CCCNC(=O)Nc1ccsc1C(=O)OC", "hERG current change (%, negative = inhibition) at 1uM": 4.02},
      {"smiles": "CCCCC(CC)CN1C(=O)/C(=C/c2ccncc2)SC1=S", "note": "(centres unmarked)", "hERG current change (%, negative = inhibition) at 1uM": 10},
      {"smiles": "CC1CCCCN1CCNC(=O)c1ccc2c(=O)n(CCc3ccccc3)c(=O)[nH]c2c1", "note": "(centres unmarked)", "hERG current change (%, negative = inhibition) at 1uM": -5.24},
      {"smiles": "O=C(Oc1ccc2ccc(=O)oc2c1)c1cccs1", "hERG current change (%, negative = inhibition) at 1uM": 12},
      {"smiles": "COc1cc2c(cc1O)C(SC)=NC(C)(C)C2", "hERG current change (%, negative = inhibition) at 1uM": 17.4},
      {"smiles": "CCN(CC(=O)Nc1c(F)cccc1F)C(=O)c1n[nH]c2ccccc12", "hERG current change (%, negative = inhibition) at 1uM": 15},
      {"smiles": "CCCNC(=O)CSC1=N/C(=C/c2ccc(F)cc2)C(=O)N1CC", "hERG current change (%, negative = inhibition) at 1uM": 9.05},
      {"smiles": "CCOC(=O)c1c(C)oc2ccc(NS(=O)(=O)c3ccc4c5c(cccc35)C(=O)N4)cc12", "hERG current change (%, negative = inhibition) at 1uM": -4.16},
      {"smiles": "CCOc1ccccc1NC(=O)CSc1nc2ccccc2c(=O)n1CC1CCCO1", "note": "(centres unmarked)", "hERG current change (%, negative = inhibition) at 1uM": -35.6},
      {"smiles": "COc1ccc2nc(/N=C/c3c(O)n(-c4cccc(Cl)c4)c(=O)[nH]c3=O)sc2c1", "hERG current change (%, negative = inhibition) at 1uM": 4.11},
      {"smiles": "Cc1ccc(Cc2nnc(SCC(=O)Nc3ccc(C)cc3C)[nH]c2=O)cc1", "hERG current change (%, negative = inhibition) at 1uM": 9.56},
      {"smiles": "CC(/C=N/NC(=O)Cn1cnc2ccccc21)=C\\c1ccccc1", "hERG current change (%, negative = inhibition) at 1uM": 3.77},
      {"smiles": "COc1ccc(/C=C2\\N=C(SC)N(c3ccccc3OC)C2=O)cc1", "hERG current change (%, negative = inhibition) at 1uM": 8.55},
      {"smiles": "Cc1cc(C)n(-c2nnc3n2N=C(c2c[nH]c4ccccc24)CS3)n1", "hERG current change (%, negative = inhibition) at 1uM": -1.96},
      {"smiles": "C/C(=N\\NC(=O)CNC(=O)c1ccc(Br)cc1)c1ccco1", "hERG current change (%, negative = inhibition) at 1uM": 11.7},
      {"smiles": "O=C(Cn1nc(-c2ccccc2Cl)ccc1=O)Nc1ccccc1-c1ccccc1", "hERG current change (%, negative = inhibition) at 1uM": 4.87},
      {"smiles": "CCCCC(Sc1nc(N)c(NC(=O)c2ccc(OCC)cc2)c(=O)[nH]1)C(=O)O", "note": "(centres unmarked)", "hERG current change (%, negative = inhibition) at 1uM": 9.47},
      {"smiles": "CCCCCCc1cc2cc(C(=O)Nc3ccc(OC)cc3)c(=O)oc2cc1O", "hERG current change (%, negative = inhibition) at 1uM": 9.87},
      {"smiles": "O=C(Nc1csc([N+](=O)[O-])c1)Nc1c(Cl)cccc1Cl", "hERG current change (%, negative = inhibition) at 1uM": 9.62},
      {"smiles": "O=C(NC(=S)Nc1ccc(S(=O)(=O)N2CCOCC2)cc1)c1ccccc1[N+](=O)[O-]", "hERG current change (%, negative = inhibition) at 1uM": 10},
      {"smiles": "CCN(CC)S(=O)(=O)c1cc(Br)c(C)cc1OC", "hERG current change (%, negative = inhibition) at 1uM": -14.5},
      {"smiles": "Cc1sc(/C=C2\\C(=O)ON=C2c2ccccc2)cc1Br", "hERG current change (%, negative = inhibition) at 1uM": 12.4},
      {"smiles": "O=C(O)c1cn(C2CC2)c2cc(N3CCN(S(=O)(=O)c4ccc5c(c4)OCCO5)CC3)c(F)cc2c1=O", "hERG current change (%, negative = inhibition) at 1uM": 15.3},
      {"smiles": "CCOc1cc(/C=C2/SC(=S)N(C)C2=O)ccc1Oc1ccc([N+](=O)[O-])cc1[N+](=O)[O-]", "hERG current change (%, negative = inhibition) at 1uM": 13.8},
      {"smiles": "COc1ccc(C(=O)Nc2ccc(OCC(F)(F)C(F)F)c(C(F)(F)F)c2)cc1OC", "hERG current change (%, negative = inhibition) at 1uM": 12.1},
      {"smiles": "Cc1ccc(N2CC(C(=O)NC3=NCCS3)CC2=O)cc1", "note": "(centres unmarked)", "hERG current change (%, negative = inhibition) at 1uM": 12.3},
      {"smiles": "COC(=O)Cc1ccc(NC(=O)c2ccc(Br)o2)cc1", "hERG current change (%, negative = inhibition) at 1uM": 4.26},
      {"smiles": "O=C(NCCN1C(=O)S/C(=C\\c2ccc(OC(F)F)cc2)C1=O)[C@@H]1CCCN1C(=O)c1cccs1", "hERG current change (%, negative = inhibition) at 1uM": -5.87},
      {"smiles": "O=C(Nc1ccc2c(c1)OCCO2)c1cc2sccc2n1Cc1ccccc1", "hERG current change (%, negative = inhibition) at 1uM": 12.5},
      {"smiles": "O=C1CCC(C(=O)NCc2ccc3c(c2)OCO3)N1", "note": "(centres unmarked)", "hERG current change (%, negative = inhibition) at 1uM": -1.18},
      {"smiles": "O=C(O)C1CCCN(C(=O)NCc2ccccc2)C1", "note": "(centres unmarked)", "hERG current change (%, negative = inhibition) at 1uM": 9.57},
      {"smiles": "CCC1=Nc2cc(C(=O)NCCCOC)ccc2Sc2ccccc21", "hERG current change (%, negative = inhibition) at 1uM": 0.797},
      {"smiles": "COc1cc(S(=O)(=O)N2CCN(c3ccccc3)CC2)ccc1Cl", "hERG current change (%, negative = inhibition) at 1uM": 15.3},
      {"smiles": "O=C(N/N=C/c1ccc([N+](=O)[O-])o1)c1ccc(O)cc1", "hERG current change (%, negative = inhibition) at 1uM": 13.5}
    ]}
  ]
}
